In all, about 350,000 compounds went through this assay and about 9,900 (2.8%) were called active. Inconclusive results, whose numbers are uncertain, are shown with a selection of clear calls. Calls follow the shape of the dose curve; as a rule, active = well fitted activation curve with a large enough effect; inconclusive = small, poorly fitted or top-dose-only effect; inactive = no such curve, though single readings can be large or run the other way. Potencies of inconclusive entries are left out as doubtful fits.
Assay: A quantitative high throughput screen for small molecules that induce DNA re-replication in MCF 10a normal breast cells. Also: nearly all actives have a fitted effect of over 50% in size. As to activity, positive = re-replication: % of control where 0% means no effect.
Settings: MCF 10A DNA re-replication, Hoechst nuclear intensity, 48 h; activity, positive = re-replication: at 46.1 µM (top of the series)
In the case of `COCCNC(=S)N(Cc1cccs1)Cc1cc2cccc(C)c2[nH]c1=O`, the “activity, positive = re-replication” value is reported as inactive: 14.6%.
In the case of `CCCCCc1cc(O)c2c(C)cc(=O)oc2c1`, the Potency is reported as inconclusive [activator, single point].
In the case of `CCOC(=O)c1c(C)n(C)c2ccc(OCC(O)Cn3nc(C)c(Br)c3C)cc12` (configuration not stated), the Potency is reported as active: 14.6 µM.
For `COc1cccc(NC(=S)N2CCN(S(C)(=O)=O)CC2)c1`, the “activity, positive = re-replication” value was inactive: 0.0505%.
In the case of `CCOc1ccc(S(=O)(=O)NCCC2=CCCCC2)c2ccccc12`, the Potency is reported as inconclusive [activator, partial curve, poor fit].
In the case of `Cc1cc(NC(=O)c2c(F)cccc2F)n(-c2nc3ccccc3[nH]2)n1`, the Potency is reported as active: 11.6 µM.
In the case of `O=C(c1cccc(Cl)c1)N1CCC(=O)N(C(COCc2cccc(Cl)c2)Cc2ccccc2)CC1` (configuration not stated), the Potency is reported as inconclusive [activator, partial curve, poor fit].
With `CN(C)CCCN(C(=O)CCc1ccccc1)c1nc2ccc(Br)cc2s1` the Potency was inconclusive [activator, single point].
In the case of `O=C(CSc1nc2ccccc2[nH]1)Nc1c(F)cccc1F`, the Potency is reported as inconclusive [activator, partial curve, poor fit].
For `O=c1cc(-c2ccc(O)c(O)c2)oc2ccc3ccccc3c12`, the Potency was inconclusive [activator, single point].
In the case of `CCOC(=O)c1cnc2c(cnn2C)c1Cl`, the Potency is reported as inconclusive [activator, single point].
With `COc1cc2c(C#CCCO)c(-c3ccc(C#N)cc3)oc(=O)c2cc1OC` the Potency was active: 6.51 µM.
For `CCCCCN(C(=O)CCC(=O)OCC(=O)c1c(C)cc(C)cc1C)c1c(N)n(CCCC)c(=O)[nH]c1=O`, the “activity, positive = re-replication” value was inactive: -14.4%.
For `COc1ccc(S(=O)(=O)N(CCC#N)Cc2ccco2)cc1OC`, the Potency was inconclusive [activator, single point].
With `Cc1cccc(Nc2ccc([N+](=O)[O-])cn2)c1` the “activity, positive = re-replication” value was inactive: 1.58%.
In the case of `C[C@]12c3[nH]c4ccc(Cl)cc4c3CCN1C(=O)[C@@H](CC(=O)NCCc1ccccn1)C[C@@H]2C(=O)N1CCCCC1`, the Potency is reported as inconclusive [activator, single point].
With `Cc1ccc(S(=O)(=O)N(C(=O)c2ccncc2)c2ccc(OC(=O)c3ccncc3)c3ccccc23)cc1` the Potency was inconclusive [activator, single point].
With `CC(C)[C@H]1COCCS(=O)(=O)N1Cc1ccccc1-c1cccc2c1oc1ccccc12` the Potency was inconclusive [activator, single point].
In the case of `O=C(c1cc2ccccc2oc1=O)N(Cc1ccccc1)CC1CCCO1` (configuration not stated), the “activity, positive = re-replication” value is reported as inactive: 10.7%.
In the case of `N#C/C(=C\c1ccccc1)C(=O)NC1CC1`, the “activity, positive = re-replication” value is reported as inactive: 0.761%.
With `CC1O[C@@H]2O[C@](O[C@H](C)CC[C@@H](C)O)(c3ccccc3)O[C@@H]2C[C@H]1O` (some centres not stated) the Potency was inconclusive [activator, full curve, poor fit].
For `Cc1ccc(S(=O)(=O)c2c(COC(=O)c3ccccc3Cl)c(-c3ccccc3)nn2C)cc1`, the Potency was inconclusive [activator, partial curve, poor fit].
For `O=C(Nc1cc(S(=O)(=O)N2CCCCC2)ccc1Cl)C1=NN(c2ccccc2)C(=O)CC1`, the Potency was inconclusive [activator, single point].
In the case of `Cc1ccc(-n2c(-c3ccc(Cl)cc3)n[nH]c2=S)c(C)c1`, the Potency is reported as inconclusive [activator, partial curve, poor fit].
With `O=C(COC(=O)c1ccccc1Nc1ccccc1)NCc1ccccc1Cl` the Potency was inconclusive [activator, partial curve, poor fit].
For `CCN(CC)c1nc(NN)nc(Nc2ccc(C)c(Cl)c2)n1`, the Potency was inconclusive [activator, single point].
With `Cc1cccc(C)c1OCCCCN1CCCCC1` the “activity, positive = re-replication” value was inactive: 5.37%.
For `Oc1ccc(C[C@@H]2CNCCN2CCc2cc(C(F)(F)F)cc(C(F)(F)F)c2)cc1`, the Potency was inconclusive [activator, single point].
In the case of `CC(C)C[C@H](NC(=O)C1CCN(S(=O)(=O)c2ccccc2)CC1)C(=O)NCc1ccncc1`, the Potency is reported as inconclusive [activator, single point].
In the case of `O=[N+]([O-])c1ccc(N/N=C/C=C/c2ccco2)cc1`, the Potency is reported as inconclusive [activator, single point].
For `O=C(N/N=C\c1cc2c(cc1Cl)OCO2)c1cccs1`, the Potency was inconclusive [activator, single point].
In the case of `CCNC(=O)C1CCCN1S(=O)(=O)c1ccc(C)cc1` (configuration not stated), the Potency is reported as active: 20.6 µM.
In the case of `Clc1ccc(Sc2cc(N3CCOCC3)nc(-c3ccccc3)n2)cc1`, the Potency is reported as inconclusive [activator, partial curve, poor fit].
In the case of `Cc1ccccc1NCc1ccc(O)c2ncccc12`, the Potency is reported as inconclusive [activator, single point].
With `CCOC(=O)C1(CCOc2ccccc2)CCN(Cc2cccc(F)c2)CC1` the Potency was inconclusive [activator, single point].
With `CCCCCc1ccc(-c2ccc(/C=C/C(=O)O)cc2)nc1` the Potency was inconclusive [activator, partial curve, poor fit].
For `CC1(C)OC(=O)C(=CNCCc2ccc(O)cc2)C(=O)O1`, the “activity, positive = re-replication” value was inactive: 13.1%.
In the case of `N#CCCN(C(=O)COC(=O)c1cc(=O)c2ccccc2o1)c1ccccc1`, the “activity, positive = re-replication” value is reported as inactive: -15%.
For `C=CCOC(=O)C1=C(C)NC(SCC(=O)Nc2ccc(C)c(Cl)c2)=C(C#N)C1c1ccco1` (configuration not stated), the Potency was active: 11.2 µM.
With `O=C(N/N=C/c1ccc([N+](=O)[O-])o1)c1cc2ccccc2o1` the Potency was inconclusive [activator, single point].
For `CC(C)CCN1CCN(Cc2nc3ccccc3s2)CC1CCO` (configuration not stated), the Potency was inconclusive [activator, partial curve, poor fit].
For `Cc1ccc(O)c(NC(=O)CSc2ccc(Cl)cc2)c1`, the Potency was inconclusive [activator, single point].
In the case of `O=C(CCCSc1nnc(SCCCC(=O)c2ccc(F)cc2)s1)c1ccc(F)cc1`, the Potency is reported as inconclusive [activator, single point].
With `COc1cc(OC)c(C=CC(=O)c2ccccc2O)c(OC)c1` the “activity, positive = re-replication” value was inactive: 10.8%.
With `Cc1ccc(C)c2c1[nH]c1ccccc12` the Potency was inconclusive [activator, single point].
For `O=C(COc1ccc(F)cc1Cl)Nc1cc(S(=O)(=O)N2CCOCC2)ccc1N1CCCCC1`, the Potency was inconclusive [activator, partial curve].
For `C/C(=N\NC(=O)c1n[nH]c2c1CCC2)c1cccs1`, the “activity, positive = re-replication” value was inactive: -5.08%.
With `CCN(CC)C(=O)CSc1nnc(SCc2ccc(Cl)cc2)s1` the Potency was inconclusive [activator, partial curve, poor fit].
In the case of `COc1ccc(OC)c(CN2CCN(Cc3cccc4ccccc34)CC2)c1`, the Potency is reported as inconclusive [activator, partial curve, poor fit].
With `COc1cc(NC(=O)Nc2ccc(Cl)c(Cl)c2)c(C(=O)O)cc1OC` the Potency was inconclusive [activator, single point].
For `COc1ccc(N(C(=O)c2snc(C(N)=O)c2N)C(C(=O)NC2CCCC2)c2ccco2)c(OC)c1` (configuration not stated), the Potency was inconclusive [activator, partial curve, poor fit].
With `CCS(=O)(=O)N1CCN(C(=O)c2cccc3ccccc23)CC1` the Potency was inconclusive [activator, single point].
In the case of `O=C(NC(=S)Nc1cccc(C(F)(F)F)c1)c1csnn1`, the “activity, positive = re-replication” value is reported as inactive: 29.2%.
With `Cc1cc(C)c2nc(N3CCCC(C(=O)N4CCN(c5ncccn5)CC4)C3)sc2c1` (configuration not stated) the Potency was active: 14.6 µM.
In the case of `CC(C)N(C(=O)Cn1c(SCC(=O)NC2CC2)nc2ccccc21)C(C)C`, the Potency is reported as inconclusive [activator, single point].
For `O=C(C#Cc1ccccc1)Nc1ccccc1F`, the Potency was inconclusive [activator, single point].
For `O=C(NCc1cccnc1)C1CC(c2cccc(Br)c2)=NO1` (configuration not stated), the Potency was active: 5.8 µM.
In the case of `O=c1c2ccccc2c2ccccc2c(=O)n1Cc1cccnc1`, the Potency is reported as inconclusive [activator, full curve, poor fit].
With `O=[N+]([O-])c1ccc(-c2nc(-c3cccs3)c(-c3cccs3)[nH]2)cc1` the Potency was inconclusive [activator, single point].
For `Cc1nc2cc(NCc3nc4ccccc4n3Cc3ccccc3)ccc2n1C`, the Potency was inconclusive [activator, single point].
In the case of `COc1ccc(C/C(N)=N/OC(=O)c2cccc([N+](=O)[O-])c2)cc1`, the Potency is reported as inconclusive [activator, partial curve, poor fit].
For `CCOc1ccc(C(=O)NC2C(=O)N3C(C(=O)O)=C(COC(C)=O)CSC23)cc1OCC` (configuration not stated), the Potency was active: 16.4 µM.
With `Cc1nn(-c2ccccc2)c2c1c(C)c(CCC(=O)N1CCOCC1)c(=O)n2C` the Potency was inconclusive [activator, partial curve, poor fit].
In the case of `Cc1cc(=O)oc2c(C)c3occc3cc12`, the “activity, positive = re-replication” value is reported as inactive: -2.8%.
With `Cc1ccccc1CN1CCc2c(OCC(=O)N3CCCCC3)cccc2C1=O` the Potency was inconclusive [activator, single point].
For `CCOC(=O)C(=NC(C)CC)NNc1cccc(C(F)(F)F)c1` (configuration not stated), the Potency was inconclusive [activator, single point].
With `O=C(CSc1ccc(-c2ccc(F)cc2)nn1)NC1CCCCC1` the Potency was inconclusive [activator, partial curve, poor fit].

Reference: PubChem BioAssay AID624296 (National Center for Advancing Translational Sciences (NCATS), 2012)
Potency is read from the fitted curve at half-maximal effect; tags tell the direction and shape of the fitted curve.
